{
  "source": "paper PMC3440242",
  "about": "(Peptides, 2012)",
  "key": {"[1]": {"system": "human Y2 receptor", "details": "three experiments"}, "[2]": {"system": "human Y2 receptor", "experiment": "Unmasking of surface human Y2 receptor in adherent CHO cells", "format": "cell-based"}},
  "data": [
    {"molecule": "CCCCC[C@@H](O)[C@H]1C(=O)O[C@H](C)[C@@H](O)/C=C/C=C/C=C/C=C/C=C(\\C)[C@@H](O)C[C@H](O)C[C@H](O)C[C@H](O)C[C@H](O)C[C@H](O)C[C@@H]1O", "note": "[filipin III]", "values": [
      {"measurement": "concentration already causing loss of sites in mechanically dispersed cells", "setting": "[1]", "value": 6, "unit": "µM"}
    ]},
    {"molecule": "C[C@@H]1CC[C@@]2(OC1)O[C@H]1[C@@H](O)[C@H]3[C@@H]4CC[C@H]5C[C@@H](O[C@@H]6O[C@H](CO)[C@H](O[C@@H]7O[C@H](CO)[C@@H](O)[C@H](O[C@@H]8OC[C@@H](O)[C@H](O)[C@H]8O)[C@H]7O[C@@H]7O[C@H](CO)[C@H](O)[C@H](O[C@@H]8O[C@H](CO)[C@@H](O)[C@H](O)[C@H]8O)[C@H]7O)[C@H](O)[C@H]6O)[C@H](O)C[C@]5(C)[C@H]4CC[C@]3(C)[C@H]1[C@@H]2C", "note": "[digitonin]", "values": [
      {"measurement": "increase of labeling of adherent confluent Y2-CHO cells", "setting": "[2]; 30 μM agent, 20 min at 37 °C, 50 pM [^125I] hPYY(3-36), human, at least three experiments", "value": "about 4 fold"}
    ]},
    {"molecule": "CCN1C(=O)C=CC1=O", "note": "[NEM, N-Ethylmaleimide]", "values": [
      {"measurement": "sites unmasked, relative to sites made accessible by PAO", "setting": "[2]; NEM at 30 μM, adherent hY2-CHO cells", "value": "less than 50%"}
    ]},
    {"molecule": "CCCCCCCCCCCCCCCCCCOC[C@H](COP(=O)([O-])OCC[N+](C)(C)C)OC", "note": "[edelfosine]", "values": [
      {"measurement": "concentration at which Y2 unmasking saturates", "setting": "[2]; adherent Y2-CHO cells", "value": "about 60 μM"}
    ]}
  ]
}
